Measured values reported in the supplement of paper PMC11741623.
The list shows a part of the results. Interaction screen of human proteins with wild-type SARS-CoV-2 proteins by split-DHFR complementation in yeast, 1 µg/mL methotrexate. Value = fitness of the pair (three or more lineages) minus that of the viral protein without a human partner, on a scale set by negative (0) and fused positive (1) controls, mean of up to three cultures; higher = more likely to interact. Active = false discovery rate below 0.05 (one-sided t-test) in at least one culture. Nearly all pairs are not hits, and differences among them are mostly noise (correlation between cultures about 0.3); most hits were seen in one culture only. Human sequences are the Swiss-Prot entries looked up by gene name; the clone may be another isoform. NSP2 values were corrected by the authors for a growth advantage. Listed are human proteins with a hit and a random twelfth of the others.

Tests used:
Test in all cases: yeast fitness gain over the viral ORF with no human partner (scaled fitness); higher = more likely to interact
[1] = system: SARS-CoV-2 M
Description: (§1)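 Split mouse DHFR complementation in pooled diploid yeast: human ORFeome clones carry one fragment and viral ORFs the other; barcoded lineages compete in 1 µg/mL methotrexate and fitness is read by barcode sequencing in up to three cultures.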

[2] = system: SARS-CoV-2 NSP10
Description: as §1

[3] = system: SARS-CoV-2 NSP13
Description: as §1

[4] = system: SARS-CoV-2 NSP2
Description: as §1

[5] = system: SARS-CoV-2 NSP7
Description: as §1

[6] = system: SARS-CoV-2 N
Description: as §1

[7] = system: SARS-CoV-2 ORF3B
Description: as §1

[8] = system: SARS-CoV-2 ORF6
Description: as §1

[9] = system: SARS-CoV-2 ORF7A
Description: as §1

[10] = system: SARS-CoV-2 ORF7B
Description: as §1

[11] = system: SARS-CoV-2 ORF8
Description: as §1

[12] = system: SARS-CoV-2 NSP6
Description: as §1

[13] = system: SARS-CoV-2 NSP1
Description: as §1

[14] = system: SARS-CoV-2 NSP5
Description: as §1

[15] = system: SARS-CoV-2 NSP9
Description: as §1

[16] = system: SARS-CoV-2 NSP16
Description: as §1

[17] = system: SARS-CoV-2 NSP8
Description: as §1

[18] = system: SARS-CoV-2 ORF10
Description: as §1

[19] = system: SARS-CoV-2 ORF3A
Description: as §1

[20] = system: SARS-CoV-2 NSP15
Description: as §1

[21] = system: SARS-CoV-2 S
Description: as §1

[22] = system: SARS-CoV-2 NSP14
Description: as §1

Measured: yeast fitness gain

HYDIN, Q4G0P3
inactive: [1] -0.0219 | [2] 0.0491 | [3] 0.0373 | [4] -0.138 | [5] 0.0582 | [6] -0.0656 | [7] 0.103 | [8] 0.0481 | [9] -0.174 | [10] 0.0392 | [11] -0.0681

HOXC8, P31273
inactive: [3] 0.0347 | [4] -0.229 | [7] 0.00331 | [8] -0.32 | [10] -0.0517

OR4D1, Q15615
inactive: [2] -0.0024 | [3] -0.356 | [12] 0.0358 | [7] -0.261

CBWD1, Q9BRT8
inactive: [1] -0.00961 | [13] 0.0485 | [14] -0.13 | [12] -0.161 | [5] 0.119 | [15] 0.0851 | [7] 0.00877 | [9] -0.0815

LARP1B, Q659C4
inactive: [1] -0.112 | [2] -0.0454 | [16] 0.0825 | [14] -0.0873 | [12] 0.0502 | [17] -0.102 | [6] -0.0739 | [18] -0.187 | [19] -0.0411 | [10] -0.00157

BHLHA15, Q7RTS1
inactive: [1] -0.171 | [2] -0.473 | [3] -0.128 | [20] -0.181 | [4] -0.233 | [14] -0.0479 | [12] 0.169 | [5] 0.0533 | [17] -0.324 | [18] -0.0213 | [7] -0.00117 | [8] 0.0144 | [9] 0.0161 | [10] -0.0182 | [11] -0.139

DESI2, Q9BSY9
inactive: [3] 0.138 | [13] -0.0358 | [4] -0.201 | [10] 0.114 | [11] -0.0789

SRGAP1, Q7Z6B7
inactive: [2] 0.0582 | [3] -0.0761 | [18] -0.262 | [8] 0.0828

TET2, Q6N021
inactive: [2] -0.0812 | [3] -0.0893 | [4] -0.287 | [5] -0.0934 | [7] 0.0195 | [8] 0.031 | [10] -0.169 | [11] -0.0248

KPNA1, P52294
inactive: [1] -0.132 | [2] -0.114 | [3] -0.0847 | [20] 0.0531 | [13] -0.0408 | [4] -0.147 | [14] -0.0842 | [12] 0.00227 | [5] 0.247 | [17] -0.0293 | [15] 0.0672 | [18] -0.00837 | [7] 0.00825 | [8] 0.0124 | [10] 0.0266 | [11] -0.149

BNIP3L, O60238
inactive: [1] 0.0282 | [2] 0.0399 | [3] -0.144 | [13] 0.0427 | [4] -0.293 | [14] -0.184 | [18] 0.0473 | [19] -0.104 | [7] 0.106 | [8] -0.0646 | [10] 0.0592 | [11] 0.0365 | [21] 0.0217

MAFF, Q9ULX9
inactive: [2] -0.00801 | [3] -0.0403 | [16] -0.109 | [4] -0.0193 | [14] -0.0541 | [12] -0.0305 | [18] -0.0228 | [7] -0.106 | [8] -0.015 | [9] 0.00359 | [10] -0.109 | [11] -0.0383 | [21] -0.0182

SOX14, O95416
inactive: [20] 0.00206 | [16] 0.00298 | [12] -0.00417 | [17] -0.0493 | [10] -0.0619

PTBP1, P26599
inactive: [1] -0.103 | [2] 0.0312 | [3] 0.0618 | [4] 0.0522 | [12] 0.195 | [5] 0.189 | [18] -0.113 | [8] -0.11 | [11] 0.16 | [21] 0.27

EGR3, Q06889
inactive: [2] 0.014 | [3] -0.0888 | [22] -0.261 | [16] 0.0298 | [4] -0.0814 | [14] -0.0521 | [18] -0.0153 | [7] -0.166 | [8] 0.067 | [10] 0.013 | [11] -0.0208 | [21] 0.0601

ZNF720, Q7Z2F6
inactive: [1] -0.0132 | [2] -0.107 | [3] -0.0615 | [4] -0.0523 | [12] -0.00278 | [5] -0.218 | [8] -0.108 | [11] 0.0551

MCM9, Q9NXL9
inactive: [2] -0.12 | [3] 0.012 | [13] -0.203 | [4] 0.000442 | [14] 0.0323 | [12] 0.122 | [6] 0.103 | [18] -0.0853 | [7] -0.0575 | [8] -0.08 | [9] 0.27 | [10] 0.159 | [11] -0.0151 | [21] 0.0332

ZNF611, Q8N823
inactive: [4] -0.614 | [8] 0.0624 | [9] 0.0185 | [11] -0.299

TLK2, Q86UE8
inactive: [2] 0.074 | [3] -0.0702 | [4] -0.107 | [14] -0.0509 | [5] 0.0258 | [18] -0.0163 | [11] -0.0242

ZFYVE26, Q68DK2
inactive: [2] -0.205 | [3] 0.00721 | [16] 0.0518 | [4] -0.137 | [14] 0.0264 | [12] 0.156 | [5] -0.138 | [18] -0.159 | [7] -0.0848 | [8] 0.00297 | [9] -0.605 | [10] -0.07 | [11] -0.0588 | [21] -0.149
